Experimental data: PubChem BioAssay AID686978 (National Center for Advancing Translational Sciences (NCATS), 2013)
Where “and” joins values, the source holds several entries; their conditions need not be identical. Equal entries are not always repeated. The campaign covered roughly 420,000 compounds. About 64,000 (15%) were called active. This list was built around the results that the source calls inconclusive (neither active nor inactive); the mix of calls is not that of the screen. Calls follow the shape of the dose curve; as a rule, active = well fitted inhibition curve with a large enough effect; inconclusive = small, poorly fitted or top-dose-only effect; inactive = flat fitted curve, though single readings scatter. Where the call is inconclusive, the potency comes from a doubtful curve fit.

assay: qHTS for Inhibitors of human tyrosyl-DNA phosphodiesterase 1 (TDP1): qHTS in cells in absence of CPT; conditions: DT40 Tdp1-/- hTDP1 cells, no CPT, ATP luminescence, 48 h; activity change, negative = growth inhibition: at 46.2 µM (top of the series); also: nearly all actives have a fitted effect of over 55% in size
Procedure, shortened: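 Growth kinetics read by CellTiter-Glo luminescence after ≥48 hr at 37 °C. Cells: DT40 Tdp1-/- stably carrying human TDP1, 400 per well, compound exposure in the absence of CPT (DMSO vehicle).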
% is scaled to controls: 0 for no effect and ±100 for the full control effect; potency is read from the fitted curve at half-maximal effect; tags tell the direction and shape of the fitted curve.

| SMILES | activity change, negative = growth inhibition | Potency |
| --- | --- | --- |
| COc1ccc(CC(=O)NNS(=O)(=O)c2ccccc2[N+](=O)[O-])cc1 | inactive: 2.03% |  |
| CSc1cccc(NS(=O)(=O)c2ccc(C(C)=O)cc2)c1 |  | inconclusive: 23.1 µM [inhibitor, partial curve] |
| O=C(NCc1ccccc1F)C1CCCN(C(=O)NC2CCCCC2)C1 (stereo unspecified) | inactive: -1.91% |  |
| O=[N+]([O-])c1ccc(Cl)c(-c2ccc(/C=N/c3c(-c4ccco4)nc4ccccn34)o2)c1 |  | inconclusive: 14.6 µM [inhibitor, partial curve] |
| O=[N+]([O-])c1ccccc1N/N=C/c1c[nH]c2ccccc12 |  | inconclusive: 22.4 µM [inhibitor, single point] |
| Cc1c(NC(=O)c2cc(-c3ccc(Br)cc3)on2)c(=O)n(-c2ccccc2)n1C |  | inconclusive: 20.6 µM [inhibitor, partial curve, poor fit] and inconclusive: 32.6 µM [inhibitor, partial curve] |
| CCOC(=O)Cc1csc(NC(=O)c2sc3nc4ccc(CC)cc4cc3c2N)n1 | inconclusive: -31.9% [inhibitor] |  |
| CCN(Cc1ccc2c(c1)OCCO2)S(=O)(=O)c1ccc(NC(C)=O)cc1 |  | inconclusive: 18.4 µM [inhibitor, single point] |
| CCN(CC)C(=O)c1[nH]cnc1C(=O)Nc1ccc(C)cc1 | inactive: -14% |  |
| S=C1CCSc2ccc(Cl)cc2N1 |  | inconclusive: 20.6 µM [inhibitor, single point] |
| CCc1ccc(NC(=O)c2sc3nc(C)c(C(=O)Nc4ccc(C)cc4C)c(-c4ccco4)c3c2N)cc1 | inactive: -14.7% |  |
| Cc1ccc(OCCC(=O)OCC(=O)N2CCN(S(=O)(=O)c3ccc(Cl)cc3)CC2)cc1 |  | inconclusive: 18.4 µM [inhibitor, single point] |
| O=C(Nc1ccccc1)Nc1csc2ccccc12 |  | inconclusive: 29.1 µM [inhibitor, single point] |
| COc1ccc(C(=O)CCC(=O)Nc2cccnc2)c(OC)c1 | inactive: -29.8% |  |
| COc1ccc(Nc2sc(C(=O)c3ccccc3)c(N)c2C(=O)Nc2cc(C)ccc2C)c(OC)c1 |  | inconclusive: 20.6 µM [inhibitor, single point] |
| Cc1ccccc1C1N=C2Oc3ccccc3C=C2C(=O)N1 (stereo unspecified) |  | active: 5.8 µM |
| COc1cc(C(CCN2CCCC2)c2c(OC)cc(OC)c3c(C)cc(=O)oc23)cc(OC)c1OC (stereo unspecified) |  | active: 23.1 µM |
| O=C(NCCNC(=O)c1cc(Cl)ccc1Cl)c1cnccn1 | inactive: -6.96% |  |
| CCN(CCCNC(=O)CSc1cc(=O)n(C)c2cc(Cl)ccc12)Cc1ccccc1 |  | inconclusive: 18.4 µM [inhibitor, single point] |
| Cc1cc(-c2ccnc(-n3ncc(C(=O)NCC(C)(C)N4CCOCC4)c3C)n2)c(C)s1 | inactive: -8.81% |  |
| COCCNC(=O)C1(C)CCCN(CCS(=O)(=O)c2ccc(C)cc2)C1 (stereo unspecified) | inactive: -11.5% |  |
| CC(C)(C)c1ccc(C(=O)NN2C(=O)CSC2=S)cc1 | inactive: 10.7% |  |
| O=C(c1cccc(C(=O)N2CCN(c3ccccc3F)CC2)n1)N1CCN(c2ccccc2F)CC1 |  | inconclusive: 29.1 µM [inhibitor, single point] |
| Nn1c(SCC(=O)N2CCCC2)nnc1-c1cccs1 | inactive: -11.3% |  |

| SMILES | activity change, negative = growth inhibition | Potency |
| --- | --- | --- |
| Cc1cc(C)cc(NC(=O)CN(c2ccc(F)cc2)S(C)(=O)=O)c1 |  | inconclusive: 29.1 µM [inhibitor, single point] |
| Cc1ccc(NC(=O)c2cc(S(=O)(=O)N3CCCCC3)ccc2N2CCOCC2)cc1 |  | inconclusive: 25.9 µM [inhibitor, single point] |
| CCOC(=O)c1sc2nc3c(SCCC(=O)O)cc(C(=O)c4cc(OC)ccc4O)cn3c(=O)c2c1C |  | active: 5.17 µM |
| CCOC(=O)CN(C(=O)CSc1nnc2c(n1)[nH]c1ccc(F)cc12)c1ccccc1 |  | inconclusive: 29.1 µM [inhibitor, single point] |
| COC(=O)c1cc(S(=O)(=O)Nc2ccc(C)cn2)c[nH]1 | inactive: -1.33% |  |
| COc1cccc(CNC(=O)CCCN2C(=O)CSc3c2c(C)nn3-c2ccccc2)c1OC |  | inconclusive: 18.4 µM [inhibitor, partial curve] |
| COCCn1c(=NC(=O)c2ccc(S(=O)(=O)N3CCc4ccccc4C3)cc2)sc2cc(OC)ccc21 |  | inconclusive: 16.4 µM [inhibitor, partial curve] |
| CCCCNC(=O)CNC(=O)c1nn(-c2ccc(OC)c(OC)c2)c(=O)c2ccccc12 |  | inconclusive: 29.1 µM [inhibitor, single point] |
| COC(=O)c1ccc(NC(=O)C(=O)c2c[nH]c3ccccc23)cc1 | inactive: -18.2% |  |
| Cc1ccccc1S(=O)(=O)N(C)C[C@@H]1OCc2cnnn2CCCC(=O)N([C@@H](C)CO)C[C@H]1C | inactive: -7.04% |  |
| CCC1C(=O)CC(c2ccc([N+](=O)[O-])cc2)NC1c1ccc([N+](=O)[O-])cc1 (stereo unspecified) |  | inconclusive: 25.9 µM [inhibitor, single point] |
| COc1ccc(CC(=O)O/N=C(\N)Cc2ccc(OC)c(OC)c2)cc1 | inactive: -22.5% |  |
| Cc1ccccc1NC(=O)CSc1n[nH]c(-c2ccccn2)n1 |  | inconclusive: 25.9 µM [inhibitor, single point] |
| CC(=O)C[C@H]1c2cc(C(F)(F)F)ccc2S(=O)(=O)N1c1ccccc1 |  | inactive |
| CCN1C(=O)c2ccccc2S(=O)c2ccc(C(=O)N3CCN(c4ccccc4)CC3)cc21 (stereo unspecified) |  | active: 18.4 µM |
| Cc1cccc(CN2CCN(C3CN(Cc4cn(Cc5ccccc5C(F)(F)F)nn4)S(=O)(=O)C3)CC2)c1 (stereo unspecified) |  | inconclusive: 18.4 µM [inhibitor, single point] |
| CCOc1cccc2sc(N(CCN(CC)CC)C(=O)c3ccc(S(=O)(=O)N4CCCCC4)cc3)nc12 | inactive: 0.894% |  |
| COc1ccccc1C(=O)OCc1cc(=O)n2nc(C3CCCCC3)sc2n1 |  | inconclusive: 20.6 µM [inhibitor, partial curve] |
| Cc1ccc(-n2nc3c(c2NC(=O)c2c(-c4ccccc4Cl)noc2C)CSC3)cc1 |  | inconclusive: 25.9 µM [inhibitor, single point] |
| COc1ccc(S(=O)(=O)N2CCC(C(=O)NCCC(=O)NCc3ccccn3)CC2)cc1 | inactive: -19.7% |  |
| O=C(c1cc(C2CC2)nc2ccc(Br)cc12)N1N=C(C(F)F)CC1(O)C(F)F (stereo unspecified) |  | active: 16.4 µM |
| COc1ccc(N(C(=O)/C=C/c2ccc(OC)c(OC)c2)C2=CC3CCC(C2)N3C)cc1 (stereo unspecified) | inactive: 2.8% |  |
| O=[N+]([O-])c1ccc(CN2CCN(c3ccc(Cl)cc3)CC2)o1 | inactive: -12.8% |  |
| Cc1cccc(NC(=O)CN2C(=O)c3ccccc3Sc3ncccc32)c1C |  | inconclusive: 29.1 µM [inhibitor, single point] |

| SMILES | activity change, negative = growth inhibition | Potency |
| --- | --- | --- |
| COc1ccc(C(CNC(=O)c2ccc(OCc3cscn3)cc2)N2CCCC2)cc1 (stereo unspecified) | inactive: -19.4% |  |
| O=C(NC(c1ccc(-c2ccccc2)cc1)c1cnccn1)C1CCN(CCOc2ccc(Cl)cc2Cl)CC1 (stereo unspecified) |  | inconclusive: 23.1 µM [inhibitor, single point] |
| CC(C)(C)C1=CC(O)(c2ccccc2)C=C(C(C)(C)C)C1=O |  | inconclusive: 16.4 µM [inhibitor, partial curve] |
| CCn1c(NCc2ccc(OC)c(OC)c2)nc2ccccc21 |  | active: 9.2 µM |
| NC(=S)N=Nc1c(O)[nH]c2c(Cl)cc(Cl)cc12 |  | active: 4.61 µM |
| CCSC1=NSC2=NC(=O)/C(=C\c3coc4ccccc4c3=O)C(=N)N12 |  | inconclusive: 29.1 µM [inhibitor, single point] |
| CN(C)c1nc2cc(Cl)ccc2cc1CN(Cc1ccc2c(c1)OCO2)C(=O)c1ccoc1 | inactive: -28.3% |  |
| COc1cccc(C(=O)Oc2ccccc2/C=C\C(=O)c2cc3ccccc3o2)c1 |  | active: 4.61 µM |
| COc1ccc(C2NC(=O)N(C)C3=C2C(=O)CC(C)(C)C3)cc1OC (stereo unspecified) | inactive: -22.2% |  |
| CCc1ccc(CNCc2ccc(OCC(O)CN(C)Cc3ccccc3)cc2)nc1 (stereo unspecified) |  | active: 23.1 µM |
| C/C(=N\NC(N)=S)C1=CCC2C3CC[C@H]4CC(O)CC[C@]4(C)C3CC[C@]12C (stereo partly specified) |  | active: 5.17 µM |
| CCCN(CC(=O)Nc1ccccc1C)C(=O)c1oc2ccc(OCC)cc2c1C |  | inconclusive: 25.9 µM [inhibitor, single point] |
| Cc1cc(C)nc(NC(=NCCc2c[nH]c3ccccc23)NC(=O)Nc2cccc([N+](=O)[O-])c2)n1 |  | active: 7.31 µM |
| O=S(=O)(NCc1ccc(Cl)cc1Cl)c1cccs1 |  | inconclusive: 16.4 µM [inhibitor, single point] |
| Cc1ccc(Cl)cc1N1CCN(CCCNc2ncnc3onc(-c4ccc(Cl)cc4)c23)CC1 |  | inconclusive: 29.1 µM [inhibitor, single point] |
| O=C(C1CCN(S(=O)(=O)N2CCOCC2)CC1)N1CCN(c2ccc(F)cc2)CC1 |  | active: 10.3 µM |
| CCc1cccc(CC)c1NC(=O)C1CCN(C(=O)c2ccco2)CC1 | inactive: 0.115% |  |
| CCOC(=O)c1cc(CC)sc1NC(=O)C(c1ccccc1)c1ccccc1 |  | inconclusive: 32.6 µM [inhibitor, single point] |
| CSC[C@@H]1NC(=S)N(c2ccc(C)cc2)C1=O |  | active: 2.31 µM |
| Cc1noc2ncnc(N3CCCC(C(=O)NC(C)C)C3)c12 (stereo unspecified) |  | inconclusive: 29.1 µM [inhibitor, single point] |
| O=C(N/N=C/c1cc(Cl)cc([N+](=O)[O-])c1O)c1cc(-c2ccccn2)nc2ccccc12 |  | active: 14.6 µM |
| COc1ccc(CCNC(=S)NCCc2c[nH]c3ccccc23)cc1 |  | inconclusive: 20.6 µM [inhibitor, partial curve] |
| Cc1cc(NC(=O)c2cnn3c(C(F)F)cc(-c4ccccc4)nc23)no1 |  | active: 9.2 µM |
